Source: US20250011379A1 (VERTEX PHARMACEUTICALS, published 2025)

T1: human C4b (human, UniProt P0C0L5 20-1744)
T1 chain 1: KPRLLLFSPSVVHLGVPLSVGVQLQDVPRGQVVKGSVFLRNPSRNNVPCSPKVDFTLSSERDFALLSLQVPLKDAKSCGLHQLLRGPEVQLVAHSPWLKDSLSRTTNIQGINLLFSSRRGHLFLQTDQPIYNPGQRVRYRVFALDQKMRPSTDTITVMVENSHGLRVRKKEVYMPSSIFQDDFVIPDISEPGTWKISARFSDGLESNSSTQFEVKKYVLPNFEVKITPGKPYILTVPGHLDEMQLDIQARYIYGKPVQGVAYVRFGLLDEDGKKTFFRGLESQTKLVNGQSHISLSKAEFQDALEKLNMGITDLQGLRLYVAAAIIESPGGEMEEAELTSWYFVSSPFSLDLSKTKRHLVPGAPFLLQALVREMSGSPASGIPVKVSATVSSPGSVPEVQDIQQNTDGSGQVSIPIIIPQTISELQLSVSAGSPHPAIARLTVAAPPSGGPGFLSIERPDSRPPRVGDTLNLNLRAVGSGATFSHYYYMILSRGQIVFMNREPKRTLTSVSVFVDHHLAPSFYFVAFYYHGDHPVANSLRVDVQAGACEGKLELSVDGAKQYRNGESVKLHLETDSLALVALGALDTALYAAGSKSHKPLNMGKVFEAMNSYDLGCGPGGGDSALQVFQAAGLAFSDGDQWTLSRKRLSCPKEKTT
T1 chain 2: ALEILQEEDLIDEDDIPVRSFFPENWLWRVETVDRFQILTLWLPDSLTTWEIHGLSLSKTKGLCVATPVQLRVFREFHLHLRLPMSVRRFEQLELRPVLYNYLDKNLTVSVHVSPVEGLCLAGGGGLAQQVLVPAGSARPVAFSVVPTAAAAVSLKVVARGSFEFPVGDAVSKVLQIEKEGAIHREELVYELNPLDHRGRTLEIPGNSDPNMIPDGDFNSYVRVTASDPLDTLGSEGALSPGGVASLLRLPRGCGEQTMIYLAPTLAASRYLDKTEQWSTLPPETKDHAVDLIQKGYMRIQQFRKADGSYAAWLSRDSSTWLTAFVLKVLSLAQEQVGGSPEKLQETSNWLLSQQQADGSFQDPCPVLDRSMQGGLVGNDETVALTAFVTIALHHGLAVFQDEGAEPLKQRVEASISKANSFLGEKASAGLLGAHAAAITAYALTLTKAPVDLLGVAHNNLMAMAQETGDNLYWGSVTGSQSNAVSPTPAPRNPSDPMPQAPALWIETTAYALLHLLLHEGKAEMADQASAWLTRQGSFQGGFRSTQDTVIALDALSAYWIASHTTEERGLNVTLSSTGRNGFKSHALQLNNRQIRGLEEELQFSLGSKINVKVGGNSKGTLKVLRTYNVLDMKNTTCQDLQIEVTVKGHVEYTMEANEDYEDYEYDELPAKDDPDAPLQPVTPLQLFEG
T1 chain 3: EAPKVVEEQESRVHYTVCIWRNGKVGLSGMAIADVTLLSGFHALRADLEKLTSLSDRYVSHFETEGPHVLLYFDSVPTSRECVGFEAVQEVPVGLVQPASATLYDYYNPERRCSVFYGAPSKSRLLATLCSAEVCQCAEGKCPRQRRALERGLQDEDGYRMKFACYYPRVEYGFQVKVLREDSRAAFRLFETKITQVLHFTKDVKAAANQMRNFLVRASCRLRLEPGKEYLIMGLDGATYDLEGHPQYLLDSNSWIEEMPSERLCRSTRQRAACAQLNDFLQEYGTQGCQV

B1: Const. No. 1: HSA-GGSSGG-hCFI; F559W (enzyme)
chain: [not shown - about 600 residues]GGSSGGKVTYTSQEDLVEKKCLAKKYTHLSCDKVFCQPWQRCIEGTCVCKLPYQCPKNGTAVCATNRRSFPTYCQQKSLECLHPGTKFLNNGTCTAEGKFSVSLKHGNTDSEGIVEVKLVDQDKTMFICKSSWSMREANVACLDLGFQQGADTQRRFKLSDLSINSTECLHVHCRGLETSLAECTFTKRRTMGYQDFADVVCYTQKADSPMDDFFQCVNGKYISQMKACDGINDCGDQSDELCCKACQGKGFHCKSGVCIPSQYQCNGEVDCITGEDEVGCAGFASVTQEETEILTADMDAERRRIKSLLPKLSCGVKNRMHIRRKRIVGGKRAQLGDLPWQVAIKDASGITCGGIYIGGCWILTAAHCLRASKTHRYQIWTTVVDWIHPDLKRIVIEYVDRIIFHENYNAGTYQNDIALIEMKKDGNKKDCELPRSIPACVPWSPYLFQPNDTCIVSGWGREKDNERVFSLQWGEVKLISNCSKFYGNRFYEKEMECAGTYDGSIDACKGDSGGPLVCMDANNVTYVWGVVSWGENCGKPEFPGVYTKVANYFDWISYHVGRPWISQYNV
B2: Const. No. 2: HSA-GGSSGG-hCFI; F559H (enzyme)
chain: [not shown - about 600 residues]GGSSGGKVTYTSQEDLVEKKCLAKKYTHLSCDKVFCQPWQRCIEGTCVCKLPYQCPKNGTAVCATNRRSFPTYCQQKSLECLHPGTKFLNNGTCTAEGKFSVSLKHGNTDSEGIVEVKLVDQDKTMFICKSSWSMREANVACLDLGFQQGADTQRRFKLSDLSINSTECLHVHCRGLETSLAECTFTKRRTMGYQDFADVVCYTQKADSPMDDFFQCVNGKYISQMKACDGINDCGDQSDELCCKACQGKGFHCKSGVCIPSQYQCNGEVDCITGEDEVGCAGFASVTQEETEILTADMDAERRRIKSLLPKLSCGVKNRMHIRRKRIVGGKRAQLGDLPWQVAIKDASGITCGGIYIGGCWILTAAHCLRASKTHRYQIWTTVVDWIHPDLKRIVIEYVDRIIFHENYNAGTYQNDIALIEMKKDGNKKDCELPRSIPACVPWSPYLFQPNDTCIVSGWGREKDNERVFSLQWGEVKLISNCSKFYGNRFYEKEMECAGTYDGSIDACKGDSGGPLVCMDANNVTYVWGVVSWGENCGKPEFPGVYTKVANYFDWISYHVGRPHISQYNV
B3: Const. No. 3: HSA-GGSSGG-hCFI; L307F (enzyme)
chain: [not shown - about 600 residues]GGSSGGKVTYTSQEDLVEKKCLAKKYTHLSCDKVFCQPWQRCIEGTCVCKLPYQCPKNGTAVCATNRRSFPTYCQQKSLECLHPGTKFLNNGTCTAEGKFSVSLKHGNTDSEGIVEVKLVDQDKTMFICKSSWSMREANVACLDLGFQQGADTQRRFKLSDLSINSTECLHVHCRGLETSLAECTFTKRRTMGYQDFADVVCYTQKADSPMDDFFQCVNGKYISQMKACDGINDCGDQSDELCCKACQGKGFHCKSGVCIPSQYQCNGEVDCITGEDEVGCAGFASVTQEETEILTADMDAERRRIKSLLPKFSCGVKNRMHIRRKRIVGGKRAQLGDLPWQVAIKDASGITCGGIYIGGCWILTAAHCLRASKTHRYQIWTTVVDWIHPDLKRIVIEYVDRIIFHENYNAGTYQNDIALIEMKKDGNKKDCELPRSIPACVPWSPYLFQPNDTCIVSGWGREKDNERVFSLQWGEVKLISNCSKFYGNRFYEKEMECAGTYDGSIDACKGDSGGPLVCMDANNVTYVWGVVSWGENCGKPEFPGVYTKVANYFDWISYHVGRPFISQYNV
B4: Const. No. 4: HSA-GGSSGG-hCFI; L307H (enzyme)
chain: [not shown - about 600 residues]GGSSGGKVTYTSQEDLVEKKCLAKKYTHLSCDKVFCQPWQRCIEGTCVCKLPYQCPKNGTAVCATNRRSFPTYCQQKSLECLHPGTKFLNNGTCTAEGKFSVSLKHGNTDSEGIVEVKLVDQDKTMFICKSSWSMREANVACLDLGFQQGADTQRRFKLSDLSINSTECLHVHCRGLETSLAECTFTKRRTMGYQDFADVVCYTQKADSPMDDFFQCVNGKYISQMKACDGINDCGDQSDELCCKACQGKGFHCKSGVCIPSQYQCNGEVDCITGEDEVGCAGFASVTQEETEILTADMDAERRRIKSLLPKHSCGVKNRMHIRRKRIVGGKRAQLGDLPWQVAIKDASGITCGGIYIGGCWILTAAHCLRASKTHRYQIWTTVVDWIHPDLKRIVIEYVDRIIFHENYNAGTYQNDIALIEMKKDGNKKDCELPRSIPACVPWSPYLFQPNDTCIVSGWGREKDNERVFSLQWGEVKLISNCSKFYGNRFYEKEMECAGTYDGSIDACKGDSGGPLVCMDANNVTYVWGVVSWGENCGKPEFPGVYTKVANYFDWISYHVGRPFISQYNV
B5: Const. No. 5: HSA-GGSSGG-hCFI; L307W (enzyme)
chain: [not shown - about 600 residues]GGSSGGKVTYTSQEDLVEKKCLAKKYTHLSCDKVFCQPWQRCIEGTCVCKLPYQCPKNGTAVCATNRRSFPTYCQQKSLECLHPGTKFLNNGTCTAEGKFSVSLKHGNTDSEGIVEVKLVDQDKTMFICKSSWSMREANVACLDLGFQQGADTQRRFKLSDLSINSTECLHVHCRGLETSLAECTFTKRRTMGYQDFADVVCYTQKADSPMDDFFQCVNGKYISQMKACDGINDCGDQSDELCCKACQGKGFHCKSGVCIPSQYQCNGEVDCITGEDEVGCAGFASVTQEETEILTADMDAERRRIKSLLPKWSCGVKNRMHIRRKRIVGGKRAQLGDLPWQVAIKDASGITCGGIYIGGCWILTAAHCLRASKTHRYQIWTTVVDWIHPDLKRIVIEYVDRIIFHENYNAGTYQNDIALIEMKKDGNKKDCELPRSIPACVPWSPYLFQPNDTCIVSGWGREKDNERVFSLQWGEVKLISNCSKFYGNRFYEKEMECAGTYDGSIDACKGDSGGPLVCMDANNVTYVWGVVSWGENCGKPEFPGVYTKVANYFDWISYHVGRPFISQYNV
B6: Const. No. 6: HSA-GGSSGG-hCFI; L307Y (enzyme)
chain: [not shown - about 600 residues]GGSSGGKVTYTSQEDLVEKKCLAKKYTHLSCDKVFCQPWQRCIEGTCVCKLPYQCPKNGTAVCATNRRSFPTYCQQKSLECLHPGTKFLNNGTCTAEGKFSVSLKHGNTDSEGIVEVKLVDQDKTMFICKSSWSMREANVACLDLGFQQGADTQRRFKLSDLSINSTECLHVHCRGLETSLAECTFTKRRTMGYQDFADVVCYTQKADSPMDDFFQCVNGKYISQMKACDGINDCGDQSDELCCKACQGKGFHCKSGVCIPSQYQCNGEVDCITGEDEVGCAGFASVTQEETEILTADMDAERRRIKSLLPKYSCGVKNRMHIRRKRIVGGKRAQLGDLPWQVAIKDASGITCGGIYIGGCWILTAAHCLRASKTHRYQIWTTVVDWIHPDLKRIVIEYVDRIIFHENYNAGTYQNDIALIEMKKDGNKKDCELPRSIPACVPWSPYLFQPNDTCIVSGWGREKDNERVFSLQWGEVKLISNCSKFYGNRFYEKEMECAGTYDGSIDACKGDSGGPLVCMDANNVTYVWGVVSWGENCGKPEFPGVYTKVANYFDWISYHVGRPFISQYNV
B7: Const. No. 7: HSA-GGSSGG-hCFI; P433A (enzyme)
chain: [not shown - about 600 residues]GGSSGGKVTYTSQEDLVEKKCLAKKYTHLSCDKVFCQPWQRCIEGTCVCKLPYQCPKNGTAVCATNRRSFPTYCQQKSLECLHPGTKFLNNGTCTAEGKFSVSLKHGNTDSEGIVEVKLVDQDKTMFICKSSWSMREANVACLDLGFQQGADTQRRFKLSDLSINSTECLHVHCRGLETSLAECTFTKRRTMGYQDFADVVCYTQKADSPMDDFFQCVNGKYISQMKACDGINDCGDQSDELCCKACQGKGFHCKSGVCIPSQYQCNGEVDCITGEDEVGCAGFASVTQEETEILTADMDAERRRIKSLLPKLSCGVKNRMHIRRKRIVGGKRAQLGDLPWQVAIKDASGITCGGIYIGGCWILTAAHCLRASKTHRYQIWTTVVDWIHPDLKRIVIEYVDRIIFHENYNAGTYQNDIALIEMKKDGNKKDCELPRSIAACVPWSPYLFQPNDTCIVSGWGREKDNERVFSLQWGEVKLISNCSKFYGNRFYEKEMECAGTYDGSIDACKGDSGGPLVCMDANNVTYVWGVVSWGENCGKPEFPGVYTKVANYFDWISYHVGRPFISQYNV

Target: T1, human C4b
Assay: cell-based or functional assay

B1 and B2 are within 1.5-fold of each other in “C4c EC50” value: 183 nM for the first, 244 nM for the second.

First: B3
Second: B4
The “C4c EC50” value of the first is 1.8-fold lower: 103 nM for the first, 186 nM for the second.

Going from B5 to B6, the “C4c EC50” value falls from 183 nM to 104 nM (1.8-fold).

B7 was tested, and the “C4c EC50” value was 908 nM.
